Targets include GST-AKT1 (human) (UniProt P31749); GST-PD-L1 (human) (UniProt Q9NZQ7); GST-AKT2 (UniProt P31751).
What all share (assay): pull-down; GST pull-down: Venus- or NV-tagged and GST-tagged plasmids co-transfected 1:1 in 293T cells for 2 d; 400 ug of total soluble protein with glutathione sepharose beads overnight at 4°C; Western blot (anti-GST, anti-N-GFP or anti-PD-L1); cells under normal culture conditions or EBSS-4 h

Sequences of proteins named here, by UniProt entry; tags and fusion partners are left off. A change or cut given only in a name is not applied to a line headed by its entry. Residues count along the entry.
UniProt P31749: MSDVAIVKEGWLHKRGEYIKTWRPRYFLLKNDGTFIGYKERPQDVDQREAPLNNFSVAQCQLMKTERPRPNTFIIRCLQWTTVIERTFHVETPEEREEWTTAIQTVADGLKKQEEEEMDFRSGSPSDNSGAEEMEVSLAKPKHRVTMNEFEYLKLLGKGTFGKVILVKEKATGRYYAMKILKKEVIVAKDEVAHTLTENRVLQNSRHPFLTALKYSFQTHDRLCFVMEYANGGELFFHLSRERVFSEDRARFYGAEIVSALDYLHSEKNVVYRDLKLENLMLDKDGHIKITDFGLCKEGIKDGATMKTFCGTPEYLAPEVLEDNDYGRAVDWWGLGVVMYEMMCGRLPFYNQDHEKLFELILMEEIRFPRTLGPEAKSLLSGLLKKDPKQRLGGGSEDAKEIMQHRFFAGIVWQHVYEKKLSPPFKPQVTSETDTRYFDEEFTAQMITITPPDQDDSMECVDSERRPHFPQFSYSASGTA
UniProt Q9NZQ7, residues 19-290: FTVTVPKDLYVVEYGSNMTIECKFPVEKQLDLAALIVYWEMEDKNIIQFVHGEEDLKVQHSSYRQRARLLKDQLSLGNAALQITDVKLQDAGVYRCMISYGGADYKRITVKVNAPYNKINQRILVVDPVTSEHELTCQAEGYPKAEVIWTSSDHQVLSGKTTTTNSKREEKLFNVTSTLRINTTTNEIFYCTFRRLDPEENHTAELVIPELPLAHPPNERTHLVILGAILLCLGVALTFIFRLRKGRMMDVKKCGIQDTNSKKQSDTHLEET
UniProt P31751: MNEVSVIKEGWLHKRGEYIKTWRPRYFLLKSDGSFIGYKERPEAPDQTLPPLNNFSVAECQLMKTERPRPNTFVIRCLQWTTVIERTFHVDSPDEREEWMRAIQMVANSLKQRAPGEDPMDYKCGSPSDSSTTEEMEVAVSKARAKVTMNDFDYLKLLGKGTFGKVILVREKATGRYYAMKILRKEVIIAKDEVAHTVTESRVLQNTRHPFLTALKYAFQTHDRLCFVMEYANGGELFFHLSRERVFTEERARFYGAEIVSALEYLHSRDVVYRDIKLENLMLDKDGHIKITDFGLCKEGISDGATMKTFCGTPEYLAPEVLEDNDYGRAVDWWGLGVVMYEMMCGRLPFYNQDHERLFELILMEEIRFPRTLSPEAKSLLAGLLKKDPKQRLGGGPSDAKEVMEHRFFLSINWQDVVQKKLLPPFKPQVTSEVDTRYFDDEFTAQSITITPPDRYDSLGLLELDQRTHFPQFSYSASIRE

No constants are given. Whether binding was seen depends on the method and setting. Binding seen in cells or lysates may run through a third protein. Some binding calls cover weakened binding; strength is not graded here.

Turning to “NV-PD-L1 FL (full length 1-290 aa) (from UniProt Q9NZQ7 19-290)”, the binding result with GST-AKT1 (human) is “binds”. “Venus-Akt1 FL (1-480 aa) (from UniProt P31749 1-480)”: in the assay with GST-PD-L1 (human), the binding entry is reported as “binds”. The same measure, in the same setting: the entry for “Venus-Akt1 T1-111 (from UniProt P31749 1-111) (domain or fragment)” is “no binding”. The same measure, in the same setting: the value for “Venus-Akt1-K14R (from UniProt P31749 1-480)” was “binds”; that for “Venus-Akt1-Y176A (from UniProt P31749 1-480)” was “binds”. On to “Venus-PD-L1 FL1-290 (from UniProt Q9NZQ7 19-290)”, for which the binding entry with GST-AKT2 and in the assay with GST-AKT1 (human) was “binds” throughout. For the substance “Venus-PD-L1 T19-290 (from UniProt Q9NZQ7 19-290) (domain or fragment)”, in the assay with GST-AKT1 (human), the binding result is listed as “binds”.

Values taken from PMC6901431.
